PubChem BioAssay AID485360 (National Center for Advancing Translational Sciences (NCATS), 2010)
Screen size: about 230,000 compounds; about 1,500 (0.65%) were called active. This list was built around the results that the source calls inconclusive (neither active nor inactive); the mix of calls is not that of the screen. Calls follow the shape of the dose curve; as a rule, active = well fitted inhibition curve with a large enough effect; inconclusive = small, poorly fitted or top-dose-only effect; inactive = no such curve, though single readings can be large or run the other way. A potency beside an inconclusive call is a rough fit, not a confirmed value. The source holds several records for some structures; these can differ, active in one and inactive in another.

biological target: Lethal(3)malignant brain tumor-like protein 1 (Homo sapiens) (UniProt Q9Y468); experiment: qHTS Assay for the Inhibitors of L3MBTL1; settings: AlphaScreen L3MBTL1–H3K9me1 peptide binding; activity, negative = inhibition: at 57.1 µM (top of the series); also: nearly all actives have a fitted effect of over 60% in size
Outline: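 Read-out is AlphaScreen signal from streptavidin donor and nickel chelate acceptor beads (10 ug/mL final each) bridging L3MBTL1 (50 nM) and biotinylated K9-monomethylated H3(1-15) peptide (75 nM), after 30 min compound exposure at room temperature.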
% is scaled to controls: 0 for no effect and ±100 for the full control effect; potency is read from the fitted curve at half-maximal effect; tags tell the direction and shape of the fitted curve.

SMILES	activity, negative = inhibition	Potency
CCCCC(C)(O)C/C=C/[C@H]1[C@H](O)CC(=O)[C@@H]1CCCCCCC(=O)OC (some centres undefined)	inconclusive: -85.9% [inhibitor]	–
Cc1ccn2c(=O)nc(SCC(=O)Nc3ccc4c(c3)OCO4)nc2c1	–	inconclusive: 28.2 µM [inhibitor, partial curve]
COc1ccc(Cl)cc1NC(=O)CN1C(=O)NC(Cc2c[nH]c3ccccc23)C1=O (centres undefined)	–	inactive
CC(=O)[C@@H]1[C@@H](C(=O)c2ccc(C)cc2)[C@]2(C(=O)Nc3ccccc32)[C@H]2C=Cc3cc(F)ccc3N12	–	inactive
CCCN1C(=O)/C(=C2\SC(N3CCCCC3)=NC2=O)c2ccccc21	–	inconclusive: 39.8 µM [inhibitor, single point]
COc1ccc(NC(=O)CSc2ccc3nnc(-c4cccnc4)n3n2)c(OC)c1	–	inconclusive: 0.891 µM [inhibitor, partial curve, poor fit]
NC(=O)C1CCN(c2nc(-c3cccc(Cl)c3)cs2)CC1	–	inactive
O=C1CCC2S/C(=C/Nc3ccc(C(F)(F)F)cc3)C(=O)N12 (centres undefined)	–	inconclusive: 0.355 µM [inhibitor, full curve, poor fit]
COc1ccc(S(=O)(=O)NNC(=O)Cc2csc(C)n2)cc1[N+](=O)[O-]	–	inconclusive: 28.2 µM [inhibitor, single point]
COc1ccc(-n2c(Cc3ccccc3)nnc2SCC(=O)N2CCCc3ccccc32)cc1	–	inconclusive: 5.62 µM [inhibitor, single point]
O=C(O)c1cc(Cl)ccc1-c1ccc(/C=C/c2cc(C(F)(F)F)[nH]c(=O)n2)o1	–	inconclusive: 31.6 µM [inhibitor, partial curve]
COc1ccc(C(=O)CN2C(=O)NC3(CCCc4ccccc43)C2=O)cc1OC (centres undefined)	–	inconclusive: 0.501 µM [inhibitor, full curve, poor fit]
O=C(CN(C(=O)Cn1nnc(-c2ccccc2F)n1)c1cnc2ccccc2c1)NCC1CCCO1 (centres undefined)	–	inconclusive: 0.708 µM [inhibitor, partial curve, poor fit]
COc1cc(CNCc2ccccn2)ccc1OCC(N)=O	–	inconclusive: 35.5 µM [inhibitor, single point]
CCc1c(C)nc2cc(-c3cc(OC)cc(OC)c3)nn2c1N1CCN(CCN2CCOCC2)CC1	–	inconclusive: 10 µM [inhibitor, full curve, poor fit]
COc1ccc(-c2csc(C3=C(O)CN(C(C)C)C3=N)n2)cc1OC	–	inactive
CC1(C)Oc2ccc3ccc(=O)oc3c2/C(=C/Nc2ccc(O)cc2)C1=O	–	inconclusive: 8.91 µM [inhibitor, partial curve]
O=C(CCNc1ccccc1)c1cccc([N+](=O)[O-])c1	–	inactive
Cc1ccsc1/C=C/c1ccc2ccccc2n1	–	inactive
C=Cc1ccc2c(c1)N(C)C(=C)S2	–	inactive
CC(C)CCC(C(=O)O)C(C)CC(=O)NNC(=O)c1ccco1 (centres undefined)	–	active: 28.2 µM
Cc1ccc(CN2CCN(/N=C/C=C/c3ccccc3[N+](=O)[O-])CC2)cc1	–	inconclusive: 35.5 µM [inhibitor, partial curve]
O=C1c2ccccc2C(=O)c2c(NCCCN(CCO)CCO)cccc21	–	inconclusive: 8.91 µM [inhibitor, partial curve]

SMILES	activity, negative = inhibition	Potency
Cn1c(-c2ccc(Br)o2)nc2ccccc21	–	inactive
Cc1ccc2[nH]c3nc(NN)nnc3c2c1	–	inconclusive: 14.1 µM [inhibitor, partial curve]
CC(C)n1cnc2c(NCc3ccccc3)cc(N[C@H](C)CO)cc21	–	inconclusive: 35.5 µM [inhibitor, partial curve]
CN1CCC(C2(O)c3ccccc3CSc3sccc32)CC1 (centres undefined)	–	inconclusive: 11.2 µM [inhibitor, partial curve, poor fit]
Cn1nnnc1SCC1=C(C(=O)O)N2C(=O)[C@@H](NC(=O)[C@H](O)c3ccccc3)[C@H]2SC1	inconclusive: -97.6% [inhibitor]	–
CC(NC(=O)COc1ccc([N+](=O)[O-])cc1)c1ccccc1 (centres undefined)	–	inactive
CC(=O)N1CCc2c(sc(NC(=O)c3ccc([N+](=O)[O-])o3)c2C#N)C1	–	inactive
COc1cccc(Oc2ccc3nnc(C(F)(F)F)n3n2)c1	–	inconclusive: 10 µM [inhibitor, partial curve, poor fit]
CN(Cc1n[nH]c(=S)n1C)S(=O)(=O)c1ccccc1	–	inactive
O=[N+]([O-])c1cccc(-c2c[n+]3c(n2-c2ccccc2)SCC3)c1	–	inactive
COc1cccc(NC(=O)C(C)N2C(=O)c3ccccc3C2=O)c1 (centres undefined)	–	inconclusive: 7.08 µM [inhibitor, single point]
CC(C)(Oc1ccc(Cl)cc1)C(=O)NC1CCSC1=O (centres undefined)	–	inconclusive: 3.98 µM [inhibitor, full curve]
CCN(C(=O)COC(=O)c1ccc2c(c1)OCO2)c1c(N)n(Cc2ccccc2)c(=O)[nH]c1=O	–	inactive
COc1ccc(Cc2cc(NCc3ccccc3)c3ncn(C(C)C)c3c2)cc1	–	inconclusive: 39.8 µM [inhibitor, single point]
CCN(CC)c1ccc(C2CC(=O)Nc3cc(OC)c(OC)cc32)cc1 (centres undefined)	–	inconclusive: 25.1 µM [inhibitor, partial curve]
Cc1ccc(/C=C/C(=O)N2CCc3ccccc32)o1	–	active: 31.6 µM
O=Nc1ccc(O)c2ncccc12	–	inconclusive: 31.6 µM [inhibitor, single point]
COC(=O)c1cccc(CN2C(=O)SC(Nc3ccccc3)C2=O)c1 (centres undefined)	–	inconclusive: 0.794 µM [inhibitor, partial curve, poor fit]
CC1CCCC/C1=N\NC(=S)NCCc1ccccc1 (centres undefined)	–	inconclusive: 0.562 µM [inhibitor, full curve, poor fit]
CCOC(=O)C1=NN(c2ccc(C)cc2)C2(S1)SC(C(C)=O)=C(C)N2c1ccccc1 (centres undefined)	–	inconclusive: 28.2 µM [inhibitor, partial curve]
NC(=S)N/N=C1/CCSc2ccc3ccccc3c21	–	inconclusive: 25.1 µM [inhibitor, single point]
CC1CCCN(c2ccc(C(=O)NCc3ccc4c(c3)OCO4)cc2[N+](=O)[O-])C1 (centres undefined)	–	inactive
COc1ccc(CCN(Cc2ccccn2)C(=S)Nc2ccc(C)cc2)cc1OC	–	inconclusive: 31.6 µM [inhibitor, single point]

SMILES	activity, negative = inhibition	Potency
O=C(CN1C2CCC1CC(NC(=O)NC1CCCCC1)C2)NC1CC1 (centres undefined)	–	inactive
CCOC(=O)c1sc2ncn(C(CC)C(=O)OC)c(=O)c2c1C (centres undefined)	–	inconclusive: 3.16 µM [inhibitor, partial curve]
O=C(COc1ccc2c(c1)CCC2)N1CCN(c2cccc(C(F)(F)F)c2)CC1	–	inactive
COc1ccc(OC)c(C2NC(=O)NC(C)=C2C(=O)Nc2ccc(C)cc2C)c1 (centres undefined)	–	inconclusive: 0.631 µM [inhibitor, single point]
CC(=O)Nc1cccc(NC(=O)CSc2ccc(C(F)(F)F)cc2[N+](=O)[O-])c1	–	inconclusive: 5.01 µM [inhibitor, partial curve, poor fit]
O=C1[C@H]2CCC=C[C@H]2[C@H](c2cccc(Br)c2)N1Cc1ccccc1	–	inactive
CN(C)CCCNc1oc(-c2ccccc2Cl)nc1S(=O)(=O)c1ccccc1	–	inconclusive: 35.5 µM [inhibitor, single point]
CN1CCN(C(=O)/C(=C\c2ccc3c(c2)OCO3)NC(=O)c2cccs2)CC1	–	inconclusive: 0.708 µM [inhibitor, full curve, poor fit]
O=C(Nc1ccc2c(c1)OCO2)C1Cc2ccccc2CN1S(=O)(=O)c1cccs1 (centres undefined)	–	inconclusive: 28.2 µM [inhibitor, single point]
CCOC(=O)c1ccc(S(=O)(=O)NCC(c2ccc(N(C)C)cc2)c2c[nH]c3ccccc23)cc1 (centres undefined)	–	inconclusive: 39.8 µM [inhibitor, partial curve]
O=C(O)c1cc(S(=O)(=O)N2CCN(S(=O)(=O)c3ccc4ccccc4c3)CC2)ccc1Br	–	inconclusive: 39.8 µM [inhibitor, single point]
COc1cccc(NC(=O)CN(C)C(=O)c2ccccn2)c1	–	inconclusive: 1.12 µM [inhibitor, single point]
O=C(Cc1cccs1)N/N=C/C=C/c1ccco1	–	inconclusive: 39.8 µM [inhibitor, single point]
Cc1ccc(/C=C/C(=O)Nc2nnc(SCc3ccc(C#N)cc3)s2)o1	–	inactive
CSCCNC(=O)c1ccc(C(C)(C)C)cc1	–	inconclusive: 35.5 µM [inhibitor, single point]
COC(=O)C(Cc1ccccc1)NC(=O)c1cc(=O)[nH]c2ccccc12 (centres undefined)	–	inactive
CCN(CC)CCCN1C(=O)C(=O)/C(=C(/O)c2ccc(OC)c(Cl)c2)C1c1ccco1 (centres undefined)	–	inactive
Cc1nn(S(=O)(=O)c2cccc([N+](=O)[O-])c2)c(C)c1Br	–	inconclusive: 31.6 µM [inhibitor, single point]
COc1ccc(-n2nnnc2SCC(=O)c2ccc(O)c(O)c2)cc1	–	inconclusive: 15.8 µM [inhibitor, partial curve]
CN1CCN(S(=O)(=O)c2ccc([N+](=O)[O-])cc2)CC1	–	inactive
O=C(Nc1cccc(S(=O)(=O)N2CCCCC2)c1)c1ccc(N2CCCC2=O)cc1	–	inactive
C=CCOC(=O)C(C#N)c1nc2ccccc2nc1N1CCN(c2ccccc2OC)CC1 (centres undefined)	–	inconclusive: 15.8 µM [inhibitor, partial curve]
Clc1cccc(-c2ccc(CNCc3ccccn3)o2)c1	–	active: 22.4 µM
